# Laboratory results reported in article PMC11367644, “Structural basis for TNIP1 binding to FIP200 during mitophagy” (The Journal of Biological Chemistry, 2024).
# By UniProt entry, the sequences of proteins in these tests, tags left out. Where a name states a change or a piece, a line headed by the entry shows the natural chain unless it says otherwise. Chains listed by the source or under a name are the forms on record and can include a tag or linker. Residues count along the entry.
# FIP200 claw domain (1490-1594) (Q8TDY2, residues 1490-1594): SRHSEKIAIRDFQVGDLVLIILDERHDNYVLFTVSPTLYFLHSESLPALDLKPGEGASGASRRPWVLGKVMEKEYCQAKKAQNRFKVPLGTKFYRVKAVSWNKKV
# FIP200 claw domain (1490-1594) K1568A (Q8TDY2, form named): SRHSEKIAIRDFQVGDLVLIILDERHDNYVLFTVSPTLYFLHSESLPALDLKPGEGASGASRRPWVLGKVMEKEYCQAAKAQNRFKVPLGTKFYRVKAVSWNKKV
# FIP200 claw domain (1490-1594) F1574A (Q8TDY2, form named): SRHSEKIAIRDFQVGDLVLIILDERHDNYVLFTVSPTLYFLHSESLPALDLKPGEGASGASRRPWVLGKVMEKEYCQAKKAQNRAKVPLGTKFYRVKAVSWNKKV
# FIP200 claw domain (1490-1594) F1582A (Q8TDY2, form named): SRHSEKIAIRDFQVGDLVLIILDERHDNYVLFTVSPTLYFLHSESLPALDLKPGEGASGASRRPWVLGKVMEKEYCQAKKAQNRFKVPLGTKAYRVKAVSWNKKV
# FIP200 claw domain (1490-1594) K1568E (Q8TDY2, form named): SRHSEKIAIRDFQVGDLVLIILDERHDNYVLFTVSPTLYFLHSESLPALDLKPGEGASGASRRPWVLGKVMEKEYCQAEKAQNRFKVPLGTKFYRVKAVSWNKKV
# FIP200 claw domain (1490-1594) K1569A (Q8TDY2, form named): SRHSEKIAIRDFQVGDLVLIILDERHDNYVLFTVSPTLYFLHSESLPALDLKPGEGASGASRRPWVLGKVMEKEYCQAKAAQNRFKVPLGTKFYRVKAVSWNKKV
# FIP200 claw domain (1490-1594) K1569E (Q8TDY2, form named): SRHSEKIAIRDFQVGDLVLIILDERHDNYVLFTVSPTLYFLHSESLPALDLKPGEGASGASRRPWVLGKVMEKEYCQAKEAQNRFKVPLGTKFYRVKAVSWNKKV
# FIP200 claw domain (1490-1594) R1573E (Q8TDY2, form named): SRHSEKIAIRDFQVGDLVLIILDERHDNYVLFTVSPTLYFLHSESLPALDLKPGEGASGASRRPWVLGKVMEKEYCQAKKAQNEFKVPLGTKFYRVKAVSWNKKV
# FIP200 claw domain (1490-1594) R1584A (Q8TDY2, form named): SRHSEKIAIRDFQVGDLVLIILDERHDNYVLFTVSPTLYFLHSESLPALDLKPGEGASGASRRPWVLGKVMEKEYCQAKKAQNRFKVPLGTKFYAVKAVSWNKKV
# FIP200 claw domain (1490-1594) Y1564A (Q8TDY2, form named): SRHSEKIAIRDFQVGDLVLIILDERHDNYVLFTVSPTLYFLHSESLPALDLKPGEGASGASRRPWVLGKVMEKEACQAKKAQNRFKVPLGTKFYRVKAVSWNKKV
# These are yes or no findings as the source states them, for the method shown. Some entries that bind do so weakly or less than the wild type.
# Columns and labels:
# Assay in all cases: ITC; peptide (4 mM) injected into FIP200 claw protein (0.25 mM); 20 °C; buffer B (50 mM NaH2PO4, 150 mM NaCl, pH 7.0); single binding site model; both purified
# [1] = target: T1, FIP200 claw domain (1490-1594) K1568A (human, UniProt Q8TDY2 1490-1594, K1568A)
# T1 construct: source: E. coli Rosetta (DE3), purified (Ni-NTA, Superdex 200, HiTrap SP FF); not shown: SUMO, N-terminal, cleaved
# [2] = target: FIP200 claw domain (1490-1594) F1574A (human) (UniProt Q8TDY2)
# [3] = target: FIP200 claw domain (1490-1594) F1582A (human) (UniProt Q8TDY2)
# [4] = target: FIP200 claw domain (1490-1594) K1568E (human) (UniProt Q8TDY2)
# [5] = target: FIP200 claw domain (1490-1594) K1569A (human) (UniProt Q8TDY2)
# [6] = target: FIP200 claw domain (1490-1594) K1569E (human) (UniProt Q8TDY2)
# [7] = target: FIP200 claw domain (1490-1594) R1573E (human) (UniProt Q8TDY2)
# [8] = target: FIP200 claw domain (1490-1594) R1584A (human) (UniProt Q8TDY2)
# [9] = target: FIP200 claw domain (1490-1594) Y1564A (human) (UniProt Q8TDY2)
# [10] = target: T2, FIP200 claw domain (1490-1594) (human, UniProt Q8TDY2 1490-1594)
# T2 construct: the ITC N counts peptide per claw chain; also called FIP200 claw domain WT; WT; source: E. coli Rosetta (DE3), purified (Ni-NTA, Superdex 200, HiTrap SP FF); not shown: SUMO, N-terminal, cleaved
binding [1],binding [10],Binder,binding [2],binding [3],binding [4],binding [5],binding [6],binding [7],binding [8],binding [9]
binds weakly,,SSGTSSEFEVV (phosphoserine at 123 (SSGTS-pS-EFEVV)) [TNIP1_pS123 peptide],no binding (tested: 4 mM peptide into 0.25 mM protein),no binding (tested: 4 mM peptide into 0.25 mM protein),no binding (tested: 4 mM peptide into 0.25 mM protein),no binding (tested: 4 mM peptide into 0.25 mM protein),no binding (tested: 4 mM peptide into 0.25 mM protein),no binding (tested: 4 mM peptide into 0.25 mM protein),no binding (tested: 4 mM peptide into 0.25 mM protein),no binding (tested: 4 mM peptide into 0.25 mM protein)
,binds weakly,SSGTSSEFEVVTPEEQ [TNIP1_FIR^long peptide (unmodified)],,,,,,,,
